The other results are listed elsewhere or left out.
What follows are compounds tested on S. aureus RN4220 (assay: growth inhibition call (relative growth <= 0.2)). Details: 50 µM.

Growth inhibition call, inactive:
COc1ccc(CN(C)C[C@@H]2Oc3ccc(NC(=O)Nc4ccc(C(F)(F)F)cc4)cc3CC(=O)N([C@H](C)CO)C[C@H]2C)cc1, C[C@@H]1CCCCO[C@H](CN(C)C(=O)c2ccccc2)[C@@H](C)CN([C@H](C)CO)C(=O)c2cc(NC(=O)c3ccccc3)ccc2O1, Cc1ccc2nc(Nc3ccccc3)nc(-c3ccccc3)c2c1, CN1CCN(C(=O)C[C@H]2CC[C@@H]3[C@H](COC[C@H](O)CN3S(=O)(=O)c3cccc(Cl)c3)O2)CC1, C[C@H]1CN([C@@H](C)CO)C(=O)Cc2cc(NS(=O)(=O)c3ccccc3)ccc2O[C@H]1CN(C)Cc1ccc(Cl)c(Cl)c1, COc1ccc(S(=O)(=O)N(C)C[C@H]2Oc3ccc(N(C)C)cc3CC(=O)N([C@H](C)CO)C[C@H]2C)cc1, Cc1n[nH]c(C)c1N, COc1ccc(-c2cn(CCNC(=O)[C@@H](NS(=O)(=O)c3ccc(C)cc3)C(C)C)nn2)cc1OC, C[C@H](CO)N1C[C@H](C)[C@H](CN(C)C(=O)C2CCCCC2)OCCCC[C@H](C)Oc2ccc(NC(=O)c3ccccc3)cc2C1=O, Nc1ccn([C@@H]2C[C@@H](O)[C@H](CO)O2)c(=O)n1, Cc1noc(C)c1S(=O)(=O)N(C)C[C@@H]1Oc2ccc(NS(=O)(=O)c3cccs3)cc2CC(=O)N([C@H](C)CO)C[C@@H]1C, COC(=O)[C@H](Cc1ccccc1)NC(=O)[C@@H](N)CC(=O)O, CCS(=O)(=O)Nc1ccc2c(c1)C(=O)N(C)[C@@H]1CC[C@@H](CC(=O)N[C@H]3CCN(Cc4ccccc4)C3)O[C@@H]1CO2, Cc1noc(C)c1NC(=O)N(C)C[C@@H]1Oc2cc(C#CCN(C)C)ccc2S(=O)(=O)N([C@@H](C)CO)C[C@H]1C, COc1ccc([Si](C)(C)[C@H]2[C@H](CC(=O)N3CCC[C@H]3CO)O[C@@]3(C(=O)N(Cc4ccc(N5C(=O)c6cccc7cccc5c67)cc4)c4ccccc43)[C@@H]2C)cc1, C[C@H]1CN([C@@H](C)CO)C(=O)c2cccc(NC(=O)Nc3ccccc3)c2O[C@@H]1CN(C)Cc1ccc(Oc2ccccc2)cc1, Cc1cc(C(=O)c2cc3cc(Cl)ccc3o2)ccc1Cl, C[C@@H]1CCCCO[C@@H](CN(C)Cc2ccc(C(=O)O)cc2)[C@H](C)CN([C@H](C)CO)C(=O)c2cc(NC(=O)Nc3ccc(C(F)(F)F)cc3)ccc2O1, O=C(C[C@@H]1CC[C@@H]2[C@H](COC[C@H](O)CN2S(=O)(=O)c2ccc(F)cc2)O1)NCCN1CCCCC1, Cc1noc(C)c1S(=O)(=O)N(C)C[C@@H]1OCCCC[C@@H](C)Oc2ccc(NC(=O)Nc3ccccc3)cc2C(=O)N([C@H](C)CO)C[C@@H]1C, CN1CCN(C(=O)C[C@H]2CC[C@H](NC(=O)Cc3ccccn3)[C@@H](CO)O2)CC1, CN(C)C(=O)c1ccc(-c2cccc(-c3nc(C(=O)NCc4ccccc4)cc4c3[C@@H](CCO)N([S@@](=O)C(C)(C)C)C4)c2)cc1, Cc1ccc(S(=O)(=O)N(C)C[C@@H]2Oc3c(NS(C)(=O)=O)cccc3C(=O)N([C@@H](C)CO)C[C@H]2C)cc1, C=CCN1C(=O)[C@@H]2[C@@H](C1=O)[C@@H]1C=C[C@@H]2C1, Cc1cc(-c2cc[nH]n2)c(C)s1, Oc1cccc(O)c1, COCCN1C[C@H]2[C@H](OC)CCN(S(=O)(=O)c3cn(C)cn3)[C@H]2C1, C[C@H]1CN([C@@H](C)CO)C(=O)Cc2cc(NC(=O)CCN3CCOCC3)ccc2O[C@@H]1CN(C)S(=O)(=O)c1ccc(Cl)cc1, CN1C(=O)c2cc(NC(=O)Nc3ccccc3F)ccc2OC[C@H]2O[C@@H](CC(=O)NCc3ccc(-c4ccccc4)cc3)CC[C@@H]21, COCC#Cc1cnc2c(c1)C(=O)N([C@@H](C)CO)C[C@H](C)[C@@H](CN(C)C(=O)c1cnccn1)O2, O=C(C[C@H]1CC[C@@H](NC(=O)c2cnccn2)[C@@H](CO)O1)NCc1ccccc1F, COc1cc2c(cc1OC)-c1c(oc3cc4c(cc3c1=O)CCO4)CO2, C[C@H](CO)N1C[C@H](C)[C@H](CN(C)C(=O)Nc2ccc(C(F)(F)F)cc2)Oc2ccc(NC(=O)Cc3ccccc3)cc2CC1=O, CCOC(=O)[C@H]1CC(C)=NNC1=O, COC(=O)c1c2oc(c1C(=O)OC)C(=O)N[C@H](Cc1ccccc1)Cn1cc(nn1)CNC(=O)[C@@H](Cc1ccccc1)NC(=O)N[C@@H](CO)CC2, C[C@H](CO)N1C[C@H](C)[C@H](CN(C)S(=O)(=O)c2ccc3c(c2)OCCCO3)OCc2cnnn2CCCC1=O, C[C@@H](O)CC1=C[C@H]([C@@H](C)O)OC1=O, C[C@H]1CN([C@@H](C)CO)C(=O)c2cccc(NC(=O)Nc3ccccc3)c2O[C@H]1CN(C)Cc1ccc(-c2ccccc2)cc1, O=c1cn[nH]c(Nc2ccccc2)n1, CN(C)CCC(c1ccccc1)c1ccccn1.O=C(O)C=CC(=O)O (stereo not given)

— the antibiotic and cytotoxicity screens of Wong et al. (2023)
